Data: PMC4336329 (PLoS ONE, 2015)
The campaign covered roughly 310,000 compounds. About 2,200 (0.71%) showed an effect of 50% or more. The effect is printed as a negative number. This is one part of the list.

These molecules were tested against human ether-à-go-go-related gene (hERG) potassium channel (human, UniProt Q12809) (assay: primary screen, population patch clamp on CHO cells stably expressing hERG).
Chain of human ether-à-go-go-related gene (hERG) potassium channel (Q12809 whole entry, looked up): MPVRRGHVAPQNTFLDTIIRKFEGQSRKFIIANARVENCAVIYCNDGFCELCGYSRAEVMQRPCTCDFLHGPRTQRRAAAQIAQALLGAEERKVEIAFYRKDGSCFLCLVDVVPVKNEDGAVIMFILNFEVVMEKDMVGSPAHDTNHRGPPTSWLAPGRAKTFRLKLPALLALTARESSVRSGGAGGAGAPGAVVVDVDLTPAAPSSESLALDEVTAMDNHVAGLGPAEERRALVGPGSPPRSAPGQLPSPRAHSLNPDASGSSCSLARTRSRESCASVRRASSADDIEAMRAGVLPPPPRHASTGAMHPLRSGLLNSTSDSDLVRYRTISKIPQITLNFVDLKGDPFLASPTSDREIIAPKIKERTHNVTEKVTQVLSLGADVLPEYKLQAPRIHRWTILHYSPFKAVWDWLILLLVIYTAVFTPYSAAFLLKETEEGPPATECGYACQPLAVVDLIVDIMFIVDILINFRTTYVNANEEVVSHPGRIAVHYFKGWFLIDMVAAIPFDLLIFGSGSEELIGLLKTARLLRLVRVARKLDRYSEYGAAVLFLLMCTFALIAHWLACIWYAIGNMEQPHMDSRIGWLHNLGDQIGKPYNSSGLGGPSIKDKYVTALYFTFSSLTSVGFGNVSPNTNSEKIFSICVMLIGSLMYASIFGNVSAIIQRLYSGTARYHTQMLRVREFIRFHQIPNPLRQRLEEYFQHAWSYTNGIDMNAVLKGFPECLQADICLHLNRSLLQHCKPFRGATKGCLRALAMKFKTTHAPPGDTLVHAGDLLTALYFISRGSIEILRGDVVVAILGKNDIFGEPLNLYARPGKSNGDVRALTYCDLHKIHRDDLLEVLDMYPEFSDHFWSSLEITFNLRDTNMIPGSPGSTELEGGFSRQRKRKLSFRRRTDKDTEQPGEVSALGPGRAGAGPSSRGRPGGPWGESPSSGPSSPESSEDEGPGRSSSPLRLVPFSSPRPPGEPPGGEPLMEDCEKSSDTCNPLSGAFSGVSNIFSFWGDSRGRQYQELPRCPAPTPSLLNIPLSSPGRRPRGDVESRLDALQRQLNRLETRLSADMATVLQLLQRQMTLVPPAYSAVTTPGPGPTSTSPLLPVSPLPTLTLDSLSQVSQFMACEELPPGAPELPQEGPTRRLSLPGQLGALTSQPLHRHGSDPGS

Compound	hERG current change (%, negative = inhibition) at 1uM
COc1cccc(OCCSc2nnc3sc4ccccc4n23)c1	7.78%
CC(Oc1ccc(Br)cc1)C(=O)NCC(c1cccs1)N1CCOCC1 (stereo not drawn)	-6.38%
COC(=O)CC(CP(=O)([O-])CN(C)C=O)C(=O)OC (stereo not drawn)	9.35%
CC(C)CC1NC(=O)N(CC(=O)N2CCCc3ccccc32)C1=O (stereo not drawn)	9.71%
COc1cccc(C(=O)Nc2ccc(N3CCN(Cc4ccccc4)CC3)cc2)c1	10.5%
Cc1ccc(C(C)C)c(OCC(O)CN(C)Cc2ccccc2)c1.Cl (stereo not drawn)	8.01%
C=CCN(Cc1ccco1)S(=O)(=O)c1ccc(Cl)cc1	8.29%
CNC(=O)Cn1c(=O)n(C)c2ccccc21	1.2%
C=CCN1C(=O)CC(C(=O)NC)SC1=Nc1ccc(C(=O)OCC)cc1 (stereo not drawn)	15.3%
O=C(Nc1ccc2c(c1)OCO2)C1CCCCN1S(=O)(=O)c1ccccc1 (stereo not drawn)	3.49%
CCN(CC)C(=O)CSC1c2ccccc2C(=O)N1c1ccccc1 (stereo not drawn)	0.631%
COc1ccc(NC(=O)C2CCC(N3C(=O)C4CCCCC4C3=O)CC2)cc1 (stereo not drawn)	9.94%
COc1ccc(Cl)cc1NC(=O)CSc1nc2ccsc2c(=O)n1CC1CCC(C(=O)O)CC1 (stereo not drawn)	7.89%
O=C(CSc1ccc(-c2cccs2)nn1)Nc1ccccc1F	-13.8%
COc1ccc2c(c1)C(=O)C(=O)N2	15.4%
CCCNC(=O)NC(=O)CN1CCCC1c1ccc2c(c1)OCCO2 (stereo not drawn)	8.83%
Cc1onc(-c2ccccc2Cl)c1C(=O)N(Cc1ccc(N(C)C)cc1)C(C)C	16.2%
Cc1ccc(C(C(=O)NCc2ccc(F)cc2)N(Cc2ccco2)C(=O)c2snc(C(N)=O)c2N)o1 (stereo not drawn)	16.6%
CC(C)Oc1ccc(C(=O)Nc2ccc(N3CCN(C(=O)c4ccco4)CC3)cc2)cc1	6.88%
CCOC(=O)N1CCC(N2C(=O)c3ccccc3C2Nc2ccccc2C)CC1 (stereo not drawn)	-8.54%
CC(C)(C)c1nc(N)nc(=O)[nH]1	9.8%
CC(=N\NC(=O)c1ccc([N+](=O)[O-])cc1)/C(=N/O)C(=O)Nc1ccccc1	-1.37%
c1cncc(CSc2ccc(-c3cccnc3)nn2)c1	9.38%

Compound	hERG current change (%, negative = inhibition) at 1uM
COc1ccc(C(=O)OCN2C(=O)c3ccccc3C2=O)cc1	14.9%
CCOC(=O)c1c(C)[nH]c(C(=O)COC(=O)COc2ccccc2C)c1C	4.95%
COc1ccc(S(=O)(=O)N2CCOCC2)cc1NC(=O)Cc1coc2cc(C)c(C)cc12	14%
CCNc1cc(N2CCOCC2)nc(SC)n1	8.31%
CC/C(=N\Nc1nncc2ccccc12)c1ccc(F)cc1	3.77%
CN1CCN(C2=NCCO2)CC1	1.97%
Cc1cccc(C(=O)N2CCN(S(=O)(=O)N3CCCCC3)CC2)c1	11.8%
CC(=O)c1cccc(OCc2cc(C(=O)N3CCSCC3)no2)c1	14.9%
CCOC(=O)CSc1ncnc2c(C(=O)OCC)c3n(c12)CCC3	-10.4%
O=C(O)c1ccc(-c2cccc(Cl)c2)o1	5.28%
CN(C)/C=C/C(=O)c1ccc(Cl)cc1	16.6%
O=C(C1=C[C@H](c2ccc3c(c2)OCO3)C[C@H](OCCCCO)O1)N1CCN(Cc2ccc3c(c2)OCO3)CC1	3.48%
CCCCN(CCCC)c1nc2ccccc2nc1NS(=O)(=O)c1ccc(NC(C)=O)cc1	11.8%
COc1ccc(S(=O)(=O)N2CCN(C(=O)[C@H](Cc3ccccc3)NC(=O)c3ccco3)CC2)cc1	-1.26%
O=C(CSCc1ccc(Cl)cc1Cl)Nc1nccs1	9.06%
COc1nnc(-c2ccc(C)c(S(=O)(=O)NC(C)(C)CO)c2)c2ccccc12	10.4%
Cc1ccccc1-n1nnnc1SCc1cc(=O)n2ccsc2n1	-1.61%
CCOC(=O)c1sc(Nc2ccccc2)nc1C	9.33%
CCOc1ccc(C(=O)NNC2CC(=O)N(Cc3ccc(Cl)cc3)C2=O)cc1OC (stereo not drawn)	5.78%
CCOC(=O)C1=C(N)OC(CCl)=C(C#N)C1c1ccsc1 (stereo not drawn)	8.31%
O=C(CSc1nnnn1-c1ccc2c(c1)OCCO2)N1CCc2ccccc21	9.11%
Cl.c1ccc(CCNCc2cccnc2)cc1	6.78%
CC(C)(C)[C@H]1C=C(C(=O)N2CCN(Cc3ccccc3)CC2)O[C@@H](OCc2ccc(CO)cc2)C1	3.52%

Compound	hERG current change (%, negative = inhibition) at 1uM
COc1ccc(NC(=O)CC2CC3CCC2C3)cn1 (stereo not drawn)	16.4%
CN(C)S(=O)(=O)c1cccc(NC(=O)CCNC(=O)c2ccccc2Cl)c1	4.35%
COc1cc(/C=C2/SC(=Nc3ccc(O)cc3)NC2=O)ccc1O	11.9%
Cc1ccc(CNC(=O)CN2C(=O)C3(OCCCO3)c3ccccc32)cc1	-0.442%
CCOC(=O)c1cnc(SC2CCc3ccccc3C2=O)nc1N (stereo not drawn)	1.07%
COCc1cc(C)nc(Nc2ccc(C)cc2C)c1C#N	10.4%
O=C(OCC(=O)N1CCCC1=O)c1cccc([N+](=O)[O-])c1	18.1%
COc1ccc(-c2c(C#Cc3ccsc3)c3cc(-c4ccc(OC)c(F)c4)ccc3n2C)cc1	17.4%
O=C(CSc1cccc[n+]1[O-])Nc1ccc2c(c1)OCCO2	7.82%
CNc1nc(C)c(C(=O)c2ccc(Cl)cc2)s1	5.39%
COC(=O)CC1=C(C(=O)OC)[C@@H](c2ccccc2[N+](=O)[O-])C(C#N)=C(N)O1	20.8%
O=C(/C=C/c1ccccc1)N/C(=C\c1ccco1)C(=O)NCCO	-8.29%
CC(C)(C)NC(=S)NCc1cccnc1	-0.441%
O=C(N/N=C/c1cc([N+](=O)[O-])ccc1O)c1cccc(N2CCCC2=O)c1	-8.98%
COc1cc(/C=N/N2CCN(Cc3ccc(C)cc3)CC2)cc(OC)c1O	12.5%
CCOc1ccc(S(=O)(=O)n2nc(C)c(S(=O)(=O)N3CCOCC3)c2C)cc1	17.5%
COc1ccc(-c2oc(NC(=O)CCl)c(C#N)c2-c2ccc(OC)cc2)cc1	5.46%
O=C(Nc1nnc(C2CC2)s1)c1n[nH]c(=O)c2ccccc12	6.56%
CCc1ccc(C(=O)NNC(=O)Cn2c(=O)cnc3ccccc32)cc1	2.28%
COc1ccc(CCNC(=O)C2CCCN(S(=O)(=O)N3CCCCCC3)C2)cc1OC (stereo not drawn)	8.92%
CCn1c(=O)c(C(=O)NNS(=O)(=O)c2ccc(NC(=O)OC)cc2)c(O)c2ccccc21	-24.2%
COCc1ccc([C@@H]2C[C@H]3CN(Cc4ccccc4C)C(=O)[C@]34CCCN24)o1	-1.73%
CCN1CCN(c2ccc(S(=O)(=O)N(CC)CC)cc2[N+](=O)[O-])CC1	1.33%

Compound	hERG current change (%, negative = inhibition) at 1uM
O=C(NCC1CCCO1)/C(=C\c1ccc(Cl)cc1)NC(=O)c1ccccc1 (stereo not drawn)	6.43%
Cc1cc(NS(=O)(=O)c2ccc3c(c2)OCCO3)no1	11.7%
CC(C)Cc1nc2sc3c(c2c(=O)n1N)CC(C(C)C)OC3 (stereo not drawn)	18.6%
COc1ccc2nc(Cl)cc(Cl)c2c1	16.7%
COc1ccc([N+](=O)[O-])cc1N(CC1CO1)S(=O)(=O)c1ccc(C)cc1 (stereo not drawn)	18.1%
Cc1nc(Cl)cc(N/N=C/c2ccc(O)cc2O)n1	3.56%
O=C(NCCCc1nc2ccccc2[nH]1)c1cccs1	5.78%
COc1ccc(NC(C)=O)cc1NC(=O)c1ccc2ccccc2c1	-0.0088%
O=[N+]([O-])c1cc(S(=O)(=O)N2CCCC2)ccc1N/N=C/c1ccncc1	3.07%
CCCn1c2ccccc2c2nnc(SCC(=O)Nc3cc(C)on3)nc21	1.24%
Cc1c(C(=O)OCC(=O)N2CCCCC2C)oc2ccccc12 (stereo not drawn)	19.1%
Cc1ccc(N2C(=O)CCC(C(=O)O)C2c2cccs2)cc1 (stereo not drawn)	22.5%
CCOC(=O)N1CCC(N2CCN(Cc3ccccc3)C(CCO)C2)CC1 (stereo not drawn)	16.2%
CCS(=O)(=O)CCSc1nc(C)cc(C)n1	10.4%
CN(C)CCNC(=O)COc1ccc(C23CC4CC(CC(C4)C2)C3)cc1.Cl	2.63%
Cc1cc(C)n(CC(O)COc2ccccc2C)n1 (stereo not drawn)	-6.57%
O=C1CSC(c2cccc(F)c2)N1c1ccccc1 (stereo not drawn)	13.4%
CCN(CC)C(=O)N1CCc2ccccc2C1CN1C(=O)c2ccccc2C1=O (stereo not drawn)	5.4%
Cc1ccc(-c2nc3cccnc3s2)cc1NS(=O)(=O)c1ccc2c(c1)CCCC2	0.773%
COc1ccc(Br)cc1/C=C/C(=O)NC(=S)Nc1ccc(Cl)c(C(=O)O)c1	17.7%
CCOC(=O)c1cc(=O)n2[nH]c(-c3ccc(C)cc3)cc2n1	5.63%
